Data published in the supplement of paper PMC3334620.
Over roughly 33,000 sequences, “E-score (-0.5 to 0.5)” has its median near -0.054; the highest 2% begin near 0.35. This is one part of the list.

Target: T1, Stb5 (UniProt P38699)
T1 sequence: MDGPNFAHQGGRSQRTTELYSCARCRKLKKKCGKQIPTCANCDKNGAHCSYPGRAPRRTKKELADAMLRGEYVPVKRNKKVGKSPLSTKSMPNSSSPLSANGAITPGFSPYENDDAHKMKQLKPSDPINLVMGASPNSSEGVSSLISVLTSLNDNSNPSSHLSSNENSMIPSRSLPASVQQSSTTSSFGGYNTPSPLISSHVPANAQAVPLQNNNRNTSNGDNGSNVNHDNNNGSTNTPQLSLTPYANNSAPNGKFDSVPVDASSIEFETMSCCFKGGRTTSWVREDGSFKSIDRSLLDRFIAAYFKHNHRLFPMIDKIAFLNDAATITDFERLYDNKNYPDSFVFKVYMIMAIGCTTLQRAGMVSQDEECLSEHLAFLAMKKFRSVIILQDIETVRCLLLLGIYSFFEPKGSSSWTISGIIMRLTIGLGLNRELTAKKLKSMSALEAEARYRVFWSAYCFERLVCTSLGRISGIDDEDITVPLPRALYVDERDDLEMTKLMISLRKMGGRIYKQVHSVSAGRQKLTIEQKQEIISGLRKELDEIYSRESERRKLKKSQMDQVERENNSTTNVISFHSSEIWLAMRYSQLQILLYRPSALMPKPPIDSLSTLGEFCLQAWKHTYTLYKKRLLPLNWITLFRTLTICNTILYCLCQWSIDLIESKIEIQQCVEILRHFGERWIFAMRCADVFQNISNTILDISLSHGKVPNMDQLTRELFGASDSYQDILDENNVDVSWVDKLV
Assay: PBM E-score (8-mer binding enrichment) (E-score (-0.5 to 0.5)); higher = stronger / more preferred TF binding; most listed sequences are background and not binding sites
Conditions: protein concentration: 200 nM; construct: GST-full length
Summary of the method: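 The E-score, a modified Wilcoxon-Mann-Whitney statistic, was computed by the Universal PBM Analysis Suite for every ungapped eight-base word pooled with its reverse complement. Scans behind it were normalised with masliner after bound GST-tagged yeast transcription factors were detected with fluorescent anti-GST. The proteins, at about 100-200 nM, had been applied to universal all-10-mer Agilent arrays made double-stranded by primer extension.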

Point of comparison: AGCGCCAG, “PBM E-score” value 0.0993. Against it:
- ACAAATTG — lower, -0.183
- TCTCAGCA — lower, -0.253
- GTACGCGA — lower, -0.24
- GCTATCAC — lower, -0.00176
- TGGCCACA — lower, -0.243
- GGACCTGA — lower, 0.0125
- AAAGCTAA — lower, -0.114
- ATGCAGGG — lower, -0.207
- AGGTCCGC — higher, 0.425
- CGATCGCA — lower, 0.0733
- CGCTGGGC — higher, 0.106
- ACAAATAA — higher, 0.141
- CCACTCGC — lower, -0.0357
- TACGCACA — lower, -0.373
- CAGTCGGG — higher, 0.297
- GCAATTAA — higher, 0.189
- AAGGAGAG — lower, -0.239
- CAAACATA — lower, -0.269
- ACGTGATC — lower, 0.0619
- ATGTTCGG — lower, 0.0516
- AGACCAAA — lower, -0.13
- CTATACTA — lower, -0.0625
- CTTCGTAC — lower, -0.00604
- ACCTAACT — lower, -0.0158
- AGGTGAAC — lower, -0.145
- GAATCCGA — higher, 0.209
- GATGTGGA — lower, 0.0512
- CTACAAAC — lower, -0.0193
- GACCCCCA — lower, -0.201
- CCTCAACG — lower, -0.0978
- ATCATTCC — lower, -0.0558
- CTAGCCAG — lower, -0.248
- CAGCATTA — lower, -0.0945
- AAGCACAA — lower, -0.232
- AATCTCGC — lower, -0.121
- AACTTTTG — lower, -0.174
- GGCTATAC — higher, 0.133
- ACCTTTTG — lower, -0.00107
- CGGAAACG — lower, 0.00282
- AGTGAGGG — lower, -0.2
- CTCCAGTC — lower, -0.0994
- ACGGCATA — lower, 0.0909
- ATCCACTC — lower, -0.227
- TCGAGCCA — lower, -0.261
- AACAGTTG — lower, -0.0985
- ATTAGCGC — lower, 0.0864
- ACCCGCCT — lower, 0.062
- AAACGTAG — lower, -0.145
- AAGGACTC — lower, -0.0704
- CGCAGGAC — higher, 0.1
- CATATATG — lower, -0.101
- TAGGCTGA — lower, -0.123
- AAAAGTTG — lower, -0.143
- TAGGGCCA — lower, -0.283
- CAAACTCA — lower, -0.054
- ACCGTCAG — higher, 0.103
- CGCCAATC — lower, -0.114
- CCCACTCG — lower, -0.131
- ATTAGTTC — lower, 0.0669
- ACCTTTCC — lower, 0.0877
- CGAGGGGC — lower, -0.0727
- ACTAGCGG — higher, 0.256
- GGTGAAGA — lower, 0.0224
- ATCGGACG — higher, 0.305
- CAAGGAAA — lower, -0.063
- TAGAGTCA — lower, -0.126
- ATGCTCCC — lower, -0.0728
- GTTTTCCA — lower, -0.0296
- GGCCCTGA — lower, -0.0333
- TATGTTAA — lower, 0.00658
- CGCGACTA — higher, 0.184
- CGCTCTAA — lower, 0.0643
- GACGAGAC — lower, -0.0829
- AATGTCAT — lower, -0.0614
- AAAAGACT — lower, 0.00221
- TACTTGGA — lower, -0.149
- ATACAGCA — lower, -0.00496
- CAGCCGGG — lower, 0.00439
- GTGACGGA — higher, 0.272
- CGTATTAC — higher, 0.188
- GACCCTAA — lower, -0.0104
- GAGTTTAA — higher, 0.12
- CGCTTGAC — lower, -0.133
- CGGATGAC — lower, 0.0711
- CTCTGAAC — lower, -0.248
- CGCATTGA — higher, 0.151
- ATTCAGGG — lower, -0.0992
- TACGGTGA — higher, 0.16
- CGCCCTCC — lower, 0.0961
- AGCGGGCC — higher, 0.23
- GCCAGGGC — lower, -0.011
- AAGGACTA — lower, -0.29
- CTCTGCCC — lower, -0.111
- CTCAGCAG — lower, -0.262
- CGTTCACA — lower, -0.0592
- CCGAACAA — higher, 0.227
- AAGGTTGA — lower, -0.141
- CACCAGGA — lower, -0.0163
- AGGGGGAA — lower, -0.101
- AATCTAGT — lower, 0.0539
- ACTTCTTC — lower, -0.225
- AAGGTCAC — lower, -0.222
- CCCCTCTA — lower, -0.0762
- CCTGCTGA — lower, -0.216
- TCAGAAAA — lower, -0.27
- GAGCAAGC — lower, -0.168
- AACTACAG — lower, 0.0118
- GATACGTA — lower, -0.0463
- ATCTTTCC — lower, -0.0409
- ATGTGTGA — lower, -0.163
- AAGTAATC — lower, 0.0448
- AGTGAAAG — lower, -0.203
- ATTCTCGC — lower, -0.235
- CAAGGTCA — lower, -0.111
- CCATGCCA — lower, -0.0013
- CAAACTAG — lower, -0.267
- ATGAACAT — lower, -0.197
- CAGGATAG — lower, -0.12
- AGGTGCCC — lower, -0.142
- AGAAAGAG — lower, -0.102
- GAACAGTC — lower, -0.132
- ATCTTGGC — lower, -0.0726
- CCCGTTTC — higher, 0.231
- GGCATGGA — lower, 0.0843
- ATCCATTG — lower, -0.123
- CTGAATGC — lower, -0.131
- ACTCAGGC — lower, -0.117
- CCTGTCAA — lower, -0.145
- AGCACCCT — lower, -0.217
- GTTATGTA — higher, 0.181
- TCCAGGGA — lower, -0.324
- ACAGGGCG — higher, 0.111
- CACACTCC — lower, 0.0222
- AAGGGCGA — lower, -0.172
- AGGAGCTG — lower, -0.254
- ATCCCGTG — higher, 0.19
- AACATATC — higher, 0.177
- GCTCGGGA — higher, 0.137
- CGGGAGAC — lower, 0.0383
- GGATAGAA — higher, 0.14
- CCTGCGAG — lower, -0.0967
- GCTAGACA — lower, 0.0147
- GCCCTGCA — lower, -0.121
- CGGCTGTA — higher, 0.249
- AAGATACC — higher, 0.168
- AGACGTAA — lower, -0.259
- AACCGAAG — lower, 0.0358
- CTCCTGAA — lower, 0.0446
- TCGAATAA — lower, -0.125
- CGCCCAAG — lower, -0.0356
- CTCGGTCC — higher, 0.242
- CCAGACAC — lower, -0.145
- CATCGCCC — lower, -0.126
- CTAAACTA — lower, -0.11
- CGGTTACA — higher, 0.278
- CGTGATAG — lower, -0.0805
- CATTACCC — lower, -0.00203
- ACCGAGAT — higher, 0.208
- TGATTAAA — lower, 0.0509
- ACAGGCTA — lower, -0.205
- ATTTTAAG — lower, 0.0501
- CATTTTCG — lower, 0.0696
- AAGGGCGT — lower, -0.14
- AGGTAACG — lower, 0.0582
- CACTCTCG — lower, -0.0728
- TCGGGTAA — lower, -0.0182
- CGGCCTGC — lower, -0.0229
- GCCTAAAC — lower, -0.162
- GGCGGCAA — higher, 0.307
- ATGGCCGA — higher, 0.324
- GCGGAGAC — higher, 0.305
- AGCGCGTG — lower, -0.116
- AGTAGTGC — lower, -0.0336
- GCAACATA — lower, -0.0704
- AGTGGCGA — lower, 0.0076
- CGGAAGCC — higher, 0.11
- GTGTCTGA — lower, -0.0383
- GTGTCCTA — lower, -0.0179
- GCGAAGAA — lower, -0.0935
- ATTCCACG — lower, -0.198
- TGACACCA — lower, -0.123
- AGGCCCAC — lower, -0.201
- AAGCCGAC — higher, 0.344
- AACTTGGA — lower, 0.0988
- ACTTCCGA — higher, 0.262
- CCACCTCC — lower, 0.015
- CGTTCAGC — lower, -0.0774
- ACCGTCAA — higher, 0.289
- GAATACGC — lower, 0.0638
- AACCGCGA — higher, 0.272
- AGGGCGAC — lower, -0.124
- GGGATGAC — lower, -0.0348
- CCAGCTGG — lower, -0.159
- TCACCGCA — higher, 0.305
- CGTCATAG — lower, 0.0607
- GAACATAA — lower, 0.052
- ACTCACCA — lower, -0.29
- ACGCTGAG — lower, -0.148
- AAAATACC — higher, 0.316
- AAGACCCC — higher, 0.11
- CGAATCAC — lower, -0.0468
- TAATGGAA — lower, 0.00151
- AAAAGTAT — lower, -0.128
- AAGGAACC — lower, 0.00712
- ACGGCGTA — lower, 0.0801
- GTGTTCTA — lower, 0.0717
- ATTTGAGA — lower, -0.076
- AGCAAGCT — lower, -0.363
- AATCAACC — lower, -0.0664
- AGAAGTGC — lower, -0.119
- AACCTCGA — lower, -0.144
- CTAAGAGC — lower, 0.0408
- AACGTTAG — lower, -0.0282
- GGGTACTA — lower, -0.0611
- CACTCCTA — lower, 0.00265
- ATAAAAAA — lower, -0.115
- CGTGGCGA — lower, -0.0624
- TCCGCACA — lower, 0.0913
